# Results reported in the supplement of paper PMC8728848.
# The other results are listed elsewhere or left out.
# B1: Annexin-A1 (Mus musculus), P10107 (protein)
# chain: MAMVSEFLKQARFLENQEQEYVQAVKSYKGGPGSAVSPYPSFNVSSDVAALHKAIMVKGVDEATIIDILTKRTNAQRQQIKAAYLQENGKPLDEVLRKALTGHLEEVVLAMLKTPAQFDADELRGAMKGLGTDEDTLIEILTTRSNEQIREINRVYREELKRDLAKDITSDTSGDFRKALLALAKGDRCQDLSVNQDLADTDARALYEAGERRKGTDVNVFTTILTSRSFPHLRRVFQNYGKYSQHDMNKALDLELKGDIEKCLTTIVKCATSTPAFFAEKLYEAMKGAGTRHKALIRIMVSRSEIDMNEIKVFYQKKYGISLCQAILDETKGDYEKILVALCGGN
# Assays:
# Assay in all cases: glycan array binding signal (z-score within array); higher = stronger binding
# Settings in all cases: glycan notation: IUPAC condensed, linker removed
# [1] = molecular target: Neu5Ac(a2-3)GalNAc(b1-4)GlcNAc
# How it was run: (§1)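 The binding signal is a Z-score computed within each array. Data were drawn from 3228 arrays in the Consortium for Functional Glycomics database, restricted to those with a known protein sequence. Scores were averaged over arrays of the same protein sequence at different concentrations or buffers, and over linkers, and negative values can be taken as non-binding.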
# [2] = molecular target: Neu5Ac(a2-3)[GalNAc(b1-4)]Gal(b1-4)Glc
# How it was run: as §1
# [3] = molecular target: Neu5Ac(a2-3)[GalNAc(b1-4)]Gal(b1-4)GlcNAc
# How it was run: as §1
# [4] = molecular target: Neu5Ac(a2-3)[Neu5Ac(a2-6)]GalNAc
# How it was run: as §1
# [5] = molecular target: Neu5Ac(a2-6)Gal(b1-4)GlcNAc
# How it was run: as §1
# [6] = molecular target: Neu5Ac(a2-6)Gal(b1-4)GlcNAc(b1-2)Man(a1-3)[Neu5Ac(a2-6)Gal(b1-4)GlcNAc(b1-2)Man(a1-6)]Man(b1-4)GlcNAc(b1-4)GlcNAc
# How it was run: as §1
# [7] = molecular target: Neu5Ac(a2-6)Gal(b1-4)GlcNAc(b1-3)Gal(b1-4)GlcNAc
# How it was run: as §1
# [8] = molecular target: Neu5Ac(a2-6)Gal(b1-4)GlcNAc(b1-3)Gal(b1-4)[Fuc(a1-3)]GlcNAc(b1-3)Gal(b1-4)[Fuc(a1-3)]GlcNAc
# How it was run: as §1
# [9] = molecular target: Neu5Ac(a2-6)Gal(b1-4)GlcNAc6S
# How it was run: as §1
# [10] = molecular target: Neu5Ac(a2-6)GalNAc
# How it was run: as §1
# [11] = molecular target: Neu5Ac(a2-6)GalNAc(b1-4)GlcNAc
# How it was run: as §1
# [12] = molecular target: Neu5Ac(a2-8)Neu5Ac
# How it was run: as §1
# [13] = molecular target: Neu5Ac(a2-8)Neu5Ac(a2-3)Gal(b1-4)Glc
# How it was run: as §1
# [14] = molecular target: Neu5Ac(a2-8)Neu5Ac(a2-3)[GalNAc(b1-4)]Gal(b1-4)Glc
# How it was run: as §1
# [15] = molecular target: Neu5Ac(a2-8)Neu5Ac(a2-8)Neu5Ac
# How it was run: as §1
# [16] = molecular target: Neu5Ac(a2-8)Neu5Ac(a2-8)Neu5Ac(a2-3)Gal(b1-4)Glc
# How it was run: as §1
# [17] = molecular target: Neu5Ac(a2-8)Neu5Ac(a2-8)Neu5Ac(a2-3)[GalNAc(b1-4)]Gal(b1-4)Glc
# How it was run: as §1
# [18] = molecular target: Neu5Ac(a2-8)Neu5Ac(a2-8)Neu5Ac(a2-8)Neu5Ac(a2-3)[GalNAc(b1-4)]Gal(b1-4)Glc
# How it was run: as §1
# [19] = molecular target: Neu5Ac9Ac(a2-6)Gal(b1-4)GlcNAc
# How it was run: as §1
# [20] = molecular target: Neu5Gc(a2-3)Gal(b1-3)GlcNAc
# How it was run: as §1
# [21] = molecular target: Neu5Gc(a2-3)Gal(b1-3)[Fuc(a1-4)]GlcNAc
# How it was run: as §1
# [22] = molecular target: Neu5Gc(a2-3)Gal(b1-4)Glc
# How it was run: as §1
# [23] = molecular target: Neu5Gc(a2-3)Gal(b1-4)GlcNAc
# How it was run: as §1
# [24] = molecular target: Neu5Gc(a2-3)Gal(b1-4)[Fuc(a1-4)]GlcNAc
# How it was run: as §1
# [25] = molecular target: Neu5Gc(a2-6)Gal(b1-4)GlcNAc
# How it was run: as §1
# [26] = molecular target: Neu5Gc(a2-6)GalNAc
# How it was run: as §1
binder,measurement,setting,value
B1,glycan array binding signal (z-score),[1],-0.515
same,glycan array binding signal (z-score),[2],0.136
same,glycan array binding signal (z-score),[3],-0.528
same,glycan array binding signal (z-score),[4],-0.514
same,glycan array binding signal (z-score),[5],-0.22
same,glycan array binding signal (z-score),[6],-0.346
same,glycan array binding signal (z-score),[7],-0.507
same,glycan array binding signal (z-score),[8],0.039
same,glycan array binding signal (z-score),[9],1.36
same,glycan array binding signal (z-score),[10],-0.316
same,glycan array binding signal (z-score),[11],-0.589
same,glycan array binding signal (z-score),[12],-0.028
same,glycan array binding signal (z-score),[13],0.061
same,glycan array binding signal (z-score),[14],1.13
same,glycan array binding signal (z-score),[15],0.41
same,glycan array binding signal (z-score),[16],-0.535
same,glycan array binding signal (z-score),[17],-0.223
same,glycan array binding signal (z-score),[18],-0.447
same,glycan array binding signal (z-score),[19],-0.157
same,glycan array binding signal (z-score),[20],0.628
same,glycan array binding signal (z-score),[21],-0.413
same,glycan array binding signal (z-score),[22],0.38
same,glycan array binding signal (z-score),[23],0.368
same,glycan array binding signal (z-score),[24],-0.436
same,glycan array binding signal (z-score),[25],0.336
same,glycan array binding signal (z-score),[26],-0.052
